Assay results published in the supplement of paper PMC12632987.
In all, about 1,800 sequences were measured (“median log2 fold change of GCK-ALFA target abundance (FLAG IP / Myc IP barcode read proportion)”: median about 0.14, lowest 2% from about -0.84 on). Some of the results follow.

T1: TRAF2, Q12933
T1 chain: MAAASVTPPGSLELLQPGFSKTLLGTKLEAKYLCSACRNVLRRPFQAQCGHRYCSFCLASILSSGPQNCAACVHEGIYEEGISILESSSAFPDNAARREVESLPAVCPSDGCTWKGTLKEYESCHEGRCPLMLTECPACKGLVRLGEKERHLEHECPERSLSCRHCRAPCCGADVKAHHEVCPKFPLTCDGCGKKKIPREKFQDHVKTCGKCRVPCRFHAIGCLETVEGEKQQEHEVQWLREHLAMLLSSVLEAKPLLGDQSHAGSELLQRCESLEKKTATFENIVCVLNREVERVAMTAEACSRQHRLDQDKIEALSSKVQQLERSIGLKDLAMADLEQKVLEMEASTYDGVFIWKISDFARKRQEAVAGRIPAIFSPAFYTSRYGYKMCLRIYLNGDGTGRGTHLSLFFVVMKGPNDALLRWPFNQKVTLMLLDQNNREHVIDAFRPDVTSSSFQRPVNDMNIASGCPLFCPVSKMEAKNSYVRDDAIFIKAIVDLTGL

B1: traf2_out_5_63_2337 (protein)
chain: SERERLTALAREADRAVREIADALKAGDEEKARALVEEVAKDPELLRTALGIAKAELKYASLDPSLAEEKAIWQKLVELLEEAKARRAEEEAAAAEAAAA
B2: traf2_out_20_38_2032 (protein)
chain: SEEEEEERRLEEAIEVANEAYDRYTARFEEWQAAGKTVEEIAEETKKEVKELLEKAGLEEEAKILIEDIDLALSSPDAVRLLVRILARAEALVWQKEKEK
B3: traf2_out_20_38_2018 (protein)
chain: SEEEEEKEKEEKLIEHAREAYDEAEAWVARLVAEGKSVEEIAEEAKKRIKELLTKHGLEEEAKELIEDVDRVLDSPDALRLIVRILARAETLVFQKELQK
B4: traf2_out_6_156_2390 (protein)
chain: MLEEILKKAKEEIEKLIKEMSKASEEKKISYINKIAGVVYNALQKAREAGASLEELKKLSEELLKHLEEEAKKYGLDEDTKNLLLSSINAVFDVALEEAK
B5: traf2_out_1_27_1007 (protein)
chain: SDEEFRALLREADRALGSLSPEEALAAAREAVRRALARGVGEARHLAVVLVLSQADDELAEALLEAIEEVLREAGVSQEEIDEIRRRAESGRARLKKARA
B6: traf2_out_13_95_1128 (protein)
chain: SKETAEKIMEIADEMLDRVEALLEALLAEARAAGVGVAEVEEALHLARNRSVNEAIALLRELAARLPEFRAAFDATIAEIEAIRREAGRKVAEIIKEEKE
B7: traf2_out_16_171_1434 (protein)
chain: SKEEEEKKLKEEIEKDAKELIERMETAVEMTPLISKETGLTKEQIAAGFRSTMTDRIEALRKHYLEKAKDMSEEVKKFIEEQIAKVEAALDEAVAKILAL
B8: traf2_out_17_178_1718 (protein)
chain: SKEEKRKLISELTDELIDLSEEAAQRLLDLARAEGTLTPEELAALEAARRRGSNNDTLALGRRIAPKLKSRAEAEALLAEFEERSRELAKKIAEAYKEYE
B9: traf2_out_12_50_975 (protein)
chain: SEEEEEEEENERFREEADRILEKRDELWKETGGDVEKFAEKLLEIAKKSLEDAKLALRVARAKLSELLQRGEDTSVIAKAIDEIEKILEELEEKEEAAKA
B10: traf2_out_11_155_754 (protein)
chain: SEKQKLINEMNDKIMEIYDKAREEVDKLLEETAKKYPEHKEKIEKLKEETKSFSPKTYMLKALELMKELGLEEEAKKIEEIIEKTQKEASKIVIETEKKL
B11: traf2_out_11_169_797 (protein)
chain: EEAEKNRELNDFALELNDKAKEELLKHALELAKKEGLDVKEVEKIYEKNKNRSLSAVASALIKYFKSKGAEKAAKAVLEKYEELKDKINKEFTEKMKELE
B12: traf2_out_17_162_1606 (protein)
chain: GELEKEKEEIKKLLEELKKKLKELEEKLKRIKELSKEELTDLLVEASEARRKALEALERVKELKDLLDEEEYEKLATELEEIAERFQRLANEFYKELEKK
B13: traf2_out_17_178_1688 (protein)
chain: SKEEERKKISELTDKLIDLTVATGEALLARAEAEGTLSPEELAALRAAIRRGSNRTFEALAARAAPRLADAAAAAAALDAWKAEAAALSKEIAAAYEKYE
B14: traf2_out_14_149_1266 (protein)
chain: SKVEEVAERVLELLKEVVEQAKKAIETGTQEALEALYKKIKEAAEEMKKLGEEIGVSLSEVFRLEHLASQKDLPLEERLKELEEILERAEVTMEFLKREA
B15: traf2_out_13_95_1157 (protein)
chain: SAELAKKIMEIADEMLDRSLAVLDALLAKAKAAGKLEAEVAEARHLAETRSINEAIAKLRELAKAHPEFKAELDAAIAELEALRREAGRKVAELIKEEEE
B16: traf2_out_17_162_1531 (protein)
chain: SMLEEKLKKLEEELEKLKKKLKELKKKLEEIENMSKEELSDLLVEASEARREARKLAEELKKLKKEIGEEKAEKLIKEAEKIAEELQRIANELYKELEKK
B17: traf2_out_17_178_1716 (protein)
chain: SKEEYRKKISELTDELIDLAEEAAARLLALAEAEGRLSPEELAALREARRRGSPNDTLALGRRIAPKLSSQAEAQALLDDFEKKSRELAKKIAEAYEKYE
B18: traf2_out_19_16_1971 (protein)
chain: AEAELAALEAELKAIEARVEALEKYFEENEETLTREEVSDLLVEASELKRRAREIRERLATLTDWDPARVGALRARAEAIERRAQRLMNRLVEKYEELLK
B19: traf2_out_5_63_2361 (protein)
chain: SERDRLTALAREADRLVRELLAAAAAGDEARVQALIDRAVADPELARLVLGILRGEARYYELLGDKPEEAARAAALAARLEAAMAAREAEAAAAAAAAAA
B20: traf2_out_13_95_1202 (protein)
chain: SEEKTKKIREVTNEIADELLDFAEETAEKVEKETGKAEHRDRILAALNGRGVSAAIEVLRELAAEDPEHAEIYNKAAEELEEKRREAGKKFAEKLKEIEE
B21: traf2_out_18_167_1862 (protein)
chain: SEELKKELEEVTDELVRVSAIRRVFLEALQALEESREAAKALLEAAVAEFPDSEELRAALEVLRTESPEAFKAFLEEQIERLQKRANELYKKREELEKKL
B22: traf2_out_17_162_1648 (protein)
chain: SSVEEELREFERELEELERELERLRERLERLAELSREELSDLLVEASELRRRARELLQRIEEHKDLLPEERYEELRRRAEEIEREAQRIAQAFYDAYLAK
B23: traf2_out_3_77_2276 (protein)
chain: SAEREAARAALDEATTAAIASLAVLAINRPEKAEKYREMAARLHRAAAVAKEAGAEAEFLPLVEALLKAAKALNDGDEEAEKKIEELLAEIEAKAAALRA
B24: traf2_out_12_50_981 (protein)
chain: SEEEREREENERLAALGDEAIDRADAILAETGGDPAAAFARIKAEAAADPSQARFLKVVARVLRNKFLRAGADPATVGALADDTLAYLDEIIEKKVAPKP
B25: traf2_out_11_155_768 (protein)
chain: EEKLKINQEFVDKVMEIRDKAIEEIKNLILNDESLTEEEKEKLLSILDKYESLGLRSMAEELIREAKSLGHEELAKKIKEILEKAQKEMSKIAIEAEKKI
B26: traf2_out_5_63_2344 (protein)
chain: SEREELTALAREADRLVRELLEAAEAGDEERVEALLEEAVADPELARLVLGILTAEARAYRLSGTEPEQAKIAEELRERLAARAAARAAAEAAAAAAAAA
B27: traf2_out_18_3_1947 (protein)
chain: SEEKRKELSDKLDEIYDDHVDWLLARARELVARDPRFQPALDRIEAIRKQGPRPSTIANTLIDALLELGYEEEAKEVEDYYSEKAKKASEVIDEYEKAIK
B28: traf2_out_18_167_1888 (protein)
chain: SEELKKKLEELSDKIVLLSEIRRVLLLALEALKESREKAKEVIETGLSKLPESEEKKETLEVLKTKSPEEIRKFLEEKSEELQKKANEAYKEYEELRKKL
B29: traf2_out_8_174_2571 (protein)
chain: MDKEDLNLASKFLLEMEEKFEEIDELEEELKDKPLEERLKILKEEIKKIEKEMLEKIKEEKAKSSPETQKLLDRVAETVKIRAENRIKALELRAKAEKEK

Target: T1, TRAF2, Q12933
Experiment: median log2 fold change of GCK-ALFA target abundance (FLAG IP / Myc IP barcode read proportion) (log2 ratio); each designed protein is fused to an ALFA-tag nanobody in HEK293 cells to bring the named protein to FLAG-tagged glucokinase (GCK); Myc marks an untargeted standard; higher = target protein stabilised (more abundant)
Details: target protein: 3xFLAG-MCP-GCK-ALFA reporter; HEK293 landing pad (RPLP)
In short: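 The readout is target abundance, the per-binder median log2 ratio of FLAG to Myc barcode read proportions. It came from HEK293 landing-pad cells carrying a recombined ALFA-nanobody-fused binder library, induced with 2 μg mL^−1 doxycycline and transfected with a plasmid for a FLAG-tagged target and a Myc-tagged standard. After 48 h, lysates were immunoprecipitated with anti-FLAG and anti-Myc, and circular RNA barcodes were reverse transcribed, amplified and sequenced. Each barcode needed a proportion of at least 10^−7 in both replicates and each binder at least 3 barcodes per replicate, a pseudocount of 10^−6 was added, and the replicates were pooled.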

Binder | median log2 fold change
B1 | 0.16
B2 | -1.23
B3 | 0.14
B4 | 0.184
B5 | 0.0385
B6 | -0.586
B7 | 0.346
B8 | 0.278
B9 | 0.249
B10 | 0.272
B11 | -0.136
B12 | -0.311
B13 | 0.103
B14 | 0.225
B15 | -0.558
B16 | 0.168
B17 | 0.15
B18 | 0.184
B19 | 0.0818
B20 | -0.0422
B21 | 0.26
B22 | 0.205
B23 | 0.334
B24 | 0.255
B25 | 0.213
B26 | -0.508
B27 | -0.0326
B28 | 0.24
B29 | 0.0943
